The supplement of paper PMC8728848
Some of the results follow.

Columns and labels:
Assay in all cases: glycan array binding signal (z-score within array); higher = stronger binding
Conditions in all cases: glycan notation: IUPAC condensed, linker removed
[1] = biological target: Fuc(a1-2)Gal
Procedure, shortened: (§1)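 Negative Z-scores can be read as non-binding. The Z-score is calculated within each array and then averaged across arrays of one protein sequence at different concentrations or buffers and across linkers. Arrays, 3228 in all, were curated from the Consortium for Functional Glycomics database and kept only where the protein sequence was available.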

[2] = biological target: Fuc(a1-2)Gal(b1-3)GalNAc
Procedure, shortened: as §1

[3] = biological target: Fuc(a1-2)Gal(b1-3)GalNAc(a1-3)[Fuc(a1-2)]Gal(b1-4)Glc
Procedure, shortened: as §1

[4] = biological target: Fuc(a1-2)Gal(b1-3)GalNAc(a1-3)[Fuc(a1-2)]Gal(b1-4)GlcNAc
Procedure, shortened: as §1

[5] = biological target: Fuc(a1-2)Gal(b1-3)GalNAc(b1-3)Gal
Procedure, shortened: as §1

[6] = biological target: Fuc(a1-2)Gal(b1-3)GalNAc(b1-3)Gal(a1-4)Gal(b1-4)Glc
Procedure, shortened: as §1

[7] = biological target: Fuc(a1-2)Gal(b1-3)GalNAc(b1-3)Gal(b1-4)Glc
Procedure, shortened: as §1

[8] = biological target: Fuc(a1-2)Gal(b1-3)GalNAc(b1-4)[Neu5Ac(a2-3)]Gal(b1-4)Glc
Procedure, shortened: as §1

[9] = biological target: Fuc(a1-2)Gal(b1-3)GlcNAc
Procedure, shortened: as §1

[10] = biological target: Fuc(a1-2)Gal(b1-3)GlcNAc(b1-2)Man(a1-3)[Fuc(a1-2)Gal(b1-3)GlcNAc(b1-2)Man(a1-6)]Man(b1-4)GlcNAc(b1-4)GlcNAc
Procedure, shortened: as §1

[11] = biological target: Fuc(a1-2)Gal(b1-3)GlcNAc(b1-2)Man(a1-3)[Fuc(a1-2)Gal(b1-3)GlcNAc(b1-2)Man(a1-6)]Man(b1-4)GlcNAc(b1-4)[Fuc(a1-6)]GlcNAc
Procedure, shortened: as §1

[12] = biological target: Fuc(a1-2)Gal(b1-3)GlcNAc(b1-3)Gal(b1-4)Glc
Procedure, shortened: as §1

[13] = biological target: Fuc(a1-2)Gal(b1-3)GlcNAc(b1-3)GalNAc
Procedure, shortened: as §1

[14] = biological target: Fuc(a1-2)Gal(b1-3)GlcNAc(b1-3)[Fuc(a1-2)Gal(b1-3)GlcNAc(b1-6)]GalNAc
Procedure, shortened: as §1

[15] = biological target: Fuc(a1-2)Gal(b1-3)GlcNAc(b1-3)[Gal(b1-4)GlcNAc(b1-6)]Gal(b1-4)Glc
Procedure, shortened: as §1

[16] = biological target: Fuc(a1-2)Gal(b1-3)GlcNAc(b1-3)[Neu5Ac(a2-6)Gal(b1-4)GlcNAc(b1-6)]Gal(b1-4)Glc
Procedure, shortened: as §1

[17] = biological target: Fuc(a1-2)Gal(b1-3)GlcNAc6S
Procedure, shortened: as §1

[18] = biological target: Fuc(a1-2)Gal(b1-3)[Fuc(a1-4)]GlcNAc
Procedure, shortened: as §1

[19] = biological target: Fuc(a1-2)Gal(b1-3)[Fuc(a1-4)]GlcNAc(b1-2)Man(a1-3)[Fuc(a1-2)Gal(b1-3)[Fuc(a1-4)]GlcNAc(b1-2)Man(a1-3)]Man(b1-4)GlcNAc(b1-4)GlcNAc
Procedure, shortened: as §1

[20] = biological target: Fuc(a1-2)Gal(b1-3)[Fuc(a1-4)]GlcNAc(b1-2)Man(a1-3)[Fuc(a1-2)Gal(b1-3)[Fuc(a1-4)]GlcNAc(b1-2)Man(a1-6)]Man(b1-4)GlcNAc(b1-4)[Fuc(a1-6)]GlcNAc(b1-4)[Fuc(a1-6)]GlcNAc
Procedure, shortened: as §1

[21] = biological target: Fuc(a1-2)Gal(b1-3)[Fuc(a1-4)]GlcNAc(b1-3)[Fuc(a1-3)[Gal(b1-4)]GlcNAc(b1-6)]Gal(b1-4)Glc
Procedure, shortened: as §1

[22] = biological target: Fuc(a1-2)Gal(b1-3)[Fuc(a1-4)]GlcNAc(b1-3)[Gal(b1-4)GlcNAc(b1-6)]Gal(b1-4)Glc
Procedure, shortened: as §1

[23] = biological target: Fuc(a1-2)Gal(b1-4)Fuc(a1-3)]GlcNAc(b1-2)Man(a1-3)[Fuc(a1-2)Gal(b1-4)[Fuc(a1-3)]GlcNAc(b1-2)Man(a1-6)]Man(b1-4)GlcNAc(b1-4)GlcNAc
Procedure, shortened: as §1

[24] = biological target: Fuc(a1-2)Gal(b1-4)Glc
Procedure, shortened: as §1

[25] = biological target: Fuc(a1-2)Gal(b1-4)Glc6S
Procedure, shortened: as §1

[26] = biological target: Fuc(a1-2)Gal(b1-4)GlcNAc
Procedure, shortened: as §1

[27] = biological target: Fuc(a1-2)Gal(b1-4)GlcNAc(b1-2)Man
Procedure, shortened: as §1

[28] = biological target: Fuc(a1-2)Gal(b1-4)GlcNAc(b1-2)Man(a1-3)[Fuc(a1-2)Gal(b1-4)GlcNAc(b1-2)Man(a1-6)]Man(b1-4)GlcNAc(b1-4)GlcNAc
Procedure, shortened: as §1

[29] = biological target: Fuc(a1-2)Gal(b1-4)GlcNAc(b1-2)Man(a1-3)[Fuc(a1-2)Gal(b1-4)GlcNAc(b1-2)Man(a1-6)]Man(b1-4)GlcNAc(b1-4)[Fuc(a1-6)]GlcNAc
Procedure, shortened: as §1

[30] = biological target: Fuc(a1-2)Gal(b1-4)GlcNAc(b1-2)[Fuc(a1-2)Gal(b1-4)GlcNAc(b1-4)]Man(a1-3)[Fuc(a1-2)Gal(b1-4)GlcNAc(b1-2)Man(a1-6)]Man(b1-4)GlcNAc(b1-4)GlcNAc
Procedure, shortened: as §1

[31] = biological target: Fuc(a1-2)Gal(b1-4)GlcNAc(b1-3)Gal(b1-4)GlcNAc
Procedure, shortened: as §1

[32] = biological target: Fuc(a1-2)Gal(b1-4)GlcNAc(b1-3)Gal(b1-4)GlcNAc(b1-2)Man(a1-3)[Fuc(a1-2)Gal(b1-4)GlcNAc(b1-3)Gal(b1-4)GlcNAc(b1-2)Man(a1-6)]Man(b1-4)GlcNAc(b1-4)GlcNAc
Procedure, shortened: as §1

[33] = biological target: Fuc(a1-2)Gal(b1-4)GlcNAc(b1-3)Gal(b1-4)GlcNAc(b1-3)Gal(b1-4)GlcNAc
Procedure, shortened: as §1

[34] = biological target: Fuc(a1-2)Gal(b1-4)GlcNAc(b1-3)GalNAc
Procedure, shortened: as §1

[35] = biological target: Fuc(a1-2)Gal(b1-4)GlcNAc(b1-3)[Fuc(a1-2)Gal(b1-4)GlcNAc(b1-6)]GalNAc
Procedure, shortened: as §1

[36] = biological target: Fuc(a1-2)Gal(b1-4)GlcNAc(b1-3)[Fuc(a1-3)[Gal(b1-4)]GlcNAc(b1-6)]Gal(b1-4)Glc
Procedure, shortened: as §1

[37] = biological target: Fuc(a1-2)Gal(b1-4)GlcNAc(b1-6)GalNAc
Procedure, shortened: as §1

B1: MGL1 (Mus musculus), P49300 (protein)
chain: MIYENLQNSRIEEKTQEPGKAPSQSFLWRILSWTHLLLFSLGLSLLLLVVVSVIGSQNSQLRRDLGTLRATLDNTTSKIKAEFQSLDSRADSFEKGISSLKVDVEDHRQELQAGRDLSQKVTSLESTVEKREQALKTDLSDLTDHVQQLRKDLKALTCQLANLKNNGSEVACCPLHWTEHEGSCYWFSESEKSWPEADKYCRLENSHLVVVNSLEEQNFLQNRLANVVSWIGLTDQNGPWRWVDGTDFEKGFKNWAPLQPDNWFGHGLGGGEDCAHITTGGPWNDDVCQRTFRWICEMKLAKES
glycan array binding signal (z-score) [1]: -0.091
glycan array binding signal (z-score) [2]: -0.211
glycan array binding signal (z-score) [3]: -0.47
glycan array binding signal (z-score) [4]: -0.41
glycan array binding signal (z-score) [5]: -0.281
glycan array binding signal (z-score) [6]: 0.584
glycan array binding signal (z-score) [7]: -0.133
glycan array binding signal (z-score) [8]: -0.167
glycan array binding signal (z-score) [9]: -0.458
glycan array binding signal (z-score) [10]: -0.169
glycan array binding signal (z-score) [11]: 0.293
glycan array binding signal (z-score) [12]: 0.139
glycan array binding signal (z-score) [13]: -0.528
glycan array binding signal (z-score) [14]: 0.698
glycan array binding signal (z-score) [15]: -0.609
glycan array binding signal (z-score) [16]: 0.032
glycan array binding signal (z-score) [17]: 0.014
glycan array binding signal (z-score) [18]: 0.187
glycan array binding signal (z-score) [19]: 0.757
glycan array binding signal (z-score) [20]: -0.429
glycan array binding signal (z-score) [21]: 0.371
glycan array binding signal (z-score) [22]: -0.054
glycan array binding signal (z-score) [23]: -0.12
glycan array binding signal (z-score) [24]: 0.193
glycan array binding signal (z-score) [25]: -0.565
glycan array binding signal (z-score) [26]: 0.009
glycan array binding signal (z-score) [27]: 0.007
glycan array binding signal (z-score) [28]: 0.049
glycan array binding signal (z-score) [29]: -0.409
glycan array binding signal (z-score) [30]: -0.272
glycan array binding signal (z-score) [31]: -0.549
glycan array binding signal (z-score) [32]: -0.459
glycan array binding signal (z-score) [33]: -0.616
glycan array binding signal (z-score) [34]: -0.402
glycan array binding signal (z-score) [35]: -0.581
glycan array binding signal (z-score) [36]: 0.16
glycan array binding signal (z-score) [37]: 0.694
